From publication PMC6919601, “Identification of Plasmodium dipeptidyl aminopeptidase allosteric inhibitors by high throughput screening” (PLoS ONE, 2019)
In all, about 110,000 compounds went through this assay and about 230 (0.21%) showed an effect of 50% or more. This is one part of the list.

Target: DPAP1 (Plasmodium falciparum, UniProt Q8IIJ9)
Assay: primary screen, percent inhibition; read by cleavage of a fluorogenic dipeptide substrate; higher = more effect of the substance
Set-up: species or system P. falciparum D10 trophozoite lysates; single well
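Also: 30 min substrate incubation versus DMSO and 10 µM JCP410 controls.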

DPAP1, sequence (Q8IIJ9 whole entry, looked up): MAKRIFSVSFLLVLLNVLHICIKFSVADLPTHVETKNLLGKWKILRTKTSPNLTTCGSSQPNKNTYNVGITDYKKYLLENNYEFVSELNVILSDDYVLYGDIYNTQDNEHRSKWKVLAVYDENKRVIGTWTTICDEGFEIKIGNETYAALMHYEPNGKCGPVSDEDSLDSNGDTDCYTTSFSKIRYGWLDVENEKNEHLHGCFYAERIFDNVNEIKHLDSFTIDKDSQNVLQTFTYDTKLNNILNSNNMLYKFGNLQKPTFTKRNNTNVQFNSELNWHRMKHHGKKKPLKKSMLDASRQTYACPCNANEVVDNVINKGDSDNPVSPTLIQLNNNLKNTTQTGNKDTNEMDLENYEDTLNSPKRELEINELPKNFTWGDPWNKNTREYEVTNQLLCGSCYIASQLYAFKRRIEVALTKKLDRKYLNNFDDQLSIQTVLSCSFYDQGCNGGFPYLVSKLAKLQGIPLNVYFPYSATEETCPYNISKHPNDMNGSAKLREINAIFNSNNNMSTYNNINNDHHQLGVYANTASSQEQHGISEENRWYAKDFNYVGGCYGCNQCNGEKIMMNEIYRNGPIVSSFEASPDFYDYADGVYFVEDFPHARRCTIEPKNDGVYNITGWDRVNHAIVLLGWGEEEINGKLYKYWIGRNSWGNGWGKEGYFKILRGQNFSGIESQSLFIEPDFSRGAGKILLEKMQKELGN

SMILES | % Inhibition @ 10 uM [%]
CCCc1nnc(N2C(=O)c3oc4ccc(F)cc4c(=O)c3C2c2ccc(OCC)c(OC)c2)s1 (centres unmarked) | 0.0539
COc1ccc(OC)c(/C=C2\N=C(c3ccccc3OC)OC2=O)c1 | 5.63
Oc1cc(NCc2ccccc2)c(-c2ccccc2)nn1 | 1.88
COc1ccc(C2SCC(=O)N2CCc2ccc(OC)c(OC)c2)c(OC)c1 (centres unmarked) | 2.94
O=C(/C=C/c1ccccc1Cl)Nc1cccc(O)c1 | -2.12
COc1ccc(C(=O)CSc2nsc(SCC(=O)c3ccc(OC)cc3)c2C#N)cc1 | 3.39
COc1ccc(C(=O)NCc2nnc(SCC(=O)N3CCC(Cc4ccccc4)CC3)o2)cc1 | 4.1
CCc1ccccc1NC(=O)CN(C)S(=O)(=O)c1ccc(Br)cc1 | -9.11
Cc1nn(-c2ccc(C(=O)O)cc2)c2c1C(=O)CC(C)(C)C2 | -0.865
Cn1cc(NC(=O)NCCCN2CCCCCC2)c2ccccc2c1=O | -2.68
COc1cc(S(=O)(=O)n2c(C)nc3ccccc32)c(C)cc1C | 0.528
CCCC(=O)NCCNC(=O)c1c(O)oc2ccccc2c1=O | -5.46
COc1ccc(CNCc2ccc(SC)cc2)cc1 | -1.96
Cc1cccc(NC(=O)C2CCN(S(=O)(=O)c3cccc4cccnc34)CC2)n1 | 5.1
Cc1cccc(-n2c(SCC(=O)O)nnc2-c2cccs2)c1C | -9.6
O=C(Nc1cc(Cl)cc(Cl)c1)c1ccc2c(c1)OCCO2 | 6.1
CCN1CCN(C(CNC(=O)c2ccc(F)cc2)c2cccnc2)CC1 (centres unmarked) | 1.68
Cc1ccc(CNc2nc3c(S(=O)(=O)c4ccc(C)cc4)nnn3c3ccsc23)cc1 | -2.85
Cc1cc2oc3c(c(=O)c2cc1C)C(c1ccc(OCC(N)=O)cc1)N(c1nc(C)c(C)s1)C3=O (centres unmarked) | -1.33
COc1ccc(CCNC(=O)C2CCN(S(=O)(=O)c3cccs3)CC2)cc1OC | -0.601
COc1cc(C2Nc3ccc4ncccc4c3C3=C2C(=O)CC(C)(C)C3)cc(OC)c1OC (centres unmarked) | 2.01
O=C(Nc1c2c(nn1-c1ccc(F)cc1)CS(=O)(=O)C2)c1ccco1 | -4.49
Cc1nc2ccccc2c2oc(C(=O)NCCN(C)Cc3ccccc3)cc12 | -0.0115
O=C(COc1ccc(Cl)cc1)Nc1nc(-c2ccc(S(=O)(=O)N3CCOCC3)cc2)cs1 | -5.63
COc1cc(Br)c(CN2CCc3ccccc3C2)cc1OC | -5.31
O=S(=O)(NCC(c1ccccc1)N1CC=C(c2ccccc2)CC1)c1ccccc1 (centres unmarked) | -4.19

SMILES | % Inhibition @ 10 uM [%]
O=C(c1ccco1)N1CC2(c3ccccc3)CN(C(=O)c3ccco3)CC(c3ccccc3)(C1)C2=O | -3.49
Cc1cc(-c2ccc(S(=O)(=O)N3CCN(Cc4ccccc4)CC3)s2)on1 | -1.77
CCc1c(CN2CCN(C)CC2)csc1C | -6.36
Cc1sc2nc3n(sc4nc5sc(C)c(C)c5c(=O)n43)c(=O)c2c1C | -0.615
O=C(Nc1nc(-c2ccccc2)cs1)C1CCCN1C(=O)OCc1ccccc1 (centres unmarked) | -1.96
CCOC(=O)N1CN(Cc2ccccc2)Cc2c1oc1ccccc1c2=O | 2.41
CCOC(=O)c1cnc2c(CC)cccc2c1O | 2.16
Cc1cc(N(C)Cc2ccccc2)nc2cc(O)ccc12 | -1.08
CCCSc1nnc(NC(=O)c2nc(SC)ncc2Cl)s1 | 0.569
O=C(COc1ccccc1)N1CCN(C(=O)COc2ccccc2)CC1 | -2.3
CCc1ccc(N2C(=O)c3ccccc3NC2(C)C)cc1 | 1.27
CCOc1ccc(CN2CCN(C/C=C/c3ccccc3)CC2)cc1 | -3.13
COC(=O)c1sccc1NC(=O)COc1nsnc1N1CCOCC1 | -2.19
COCCNC(=O)c1cc2c(Cl)ccc3c2n1CCO3 | -5.16
O=C(Nc1ccccc1)Nc1ccc(S(=O)(=O)Nc2ccc(Br)cc2)cc1 | 2.82
Cc1nc(N2C(=O)C(O)=C(C(=O)c3ccccc3)C2c2cccs2)sc1C (centres unmarked) | -2.6
COc1ccc(/C=C2/SC(=O)N(CC(=O)Nc3cccc4ccccc34)C2=O)cc1O | 1.49
N#Cc1cc(-c2nc3ccccc3[nH]2)c(N)n2c1nc1ccccc12 | -3.5
Cn1c(Nc2cccc(F)c2)cc(=O)n(C)c1=O | -4.93
COc1ccc(Cl)cc1-n1nnc(C(=O)O)c1C(=O)O | -1.58
O=C(c1ccccc1)N1CCN=C1c1ccccc1 | 4.32
COc1ccc(C2C(C(=O)Nc3cccnc3)=C(C)Nc3nc(-c4cccs4)nn32)cc1 (centres unmarked) | 5.37
N#Cc1cc2c(nc1S(=O)(=O)Cc1ccc(Cl)cc1)CCCC2 | -3.75
Cc1nnc(N2CCC(C(=O)NCC3CCCO3)CC2)c2nn(-c3ccccc3)c(C)c12 (centres unmarked) | 1.63
Cc1cc(C2=CC(C)(C)NC(C)(C)C2)sc1C1=CC(C)(C)NC(C)(C)C1 | -2.18
CC(=O)NC1(C(F)(F)F)C(=O)Nc2c1c(=O)[nH]c(=O)n2-c1ccccc1 (centres unmarked) | 4.49

SMILES | % Inhibition @ 10 uM [%]
CNC(=O)C(=O)Nc1cccc(Br)c1 | -4.01
COCCCN1C(=O)S/C(=C/c2sccc2C)C1=O | 2.4
Cc1ccc(C(=O)Nc2nc3c(s2)CCCC3)o1 | -11
COc1ccc2nc(O)c(CN(C)S(=O)(=O)c3ccc(C)cc3)cc2c1 | -0.671
Cc1ccc2c(c1)C(=O)C(CN1CCOCC1)CO2 (centres unmarked) | 6.79
O=C(NCCCO)/C(=C\c1ccc(F)cc1)NC(=O)c1ccco1 | 14
CN(C)CCCN(C(=O)c1cccs1)c1nc2cc3c(cc2s1)OCO3 | 0.233
CN1C(=O)NC(=O)/C(=C/c2c[nH]c3ccccc23)C1=O | 4.88
CCN1CCN(c2ccc(NC(=O)C3CC3c3ccccc3)cc2)CC1 (centres unmarked) | 0.774
COC(=O)c1ccc(Cl)c(-c2ccc(C(=O)N[C@@H](Cc3c(F)cccc3F)C(=O)NC3(C#N)CCOCC3)cc2)c1 | 19
COc1cc(NC(=O)c2ccc(Cn3nc(C)c(Cl)c3C)o2)cc(OC)c1 | -2.87
CN(CCC#N)Cc1ccccc1 | -0.902
O=C1N=C(Nc2ccc(Br)cc2)S/C1=C\c1ccc(O)c(O)c1 | -4.59
COc1ccc(OC(C)C(=O)Nc2nccs2)cc1 (centres unmarked) | 2.94
COc1ccc(OC)c2c(C)cc(N3CCN(C(=O)c4ccc(Cl)cc4)CC3)nc12 | -5.4
COc1ccccc1N(CC(=O)N1CCCCC1)S(=O)(=O)c1ccccc1 | -7.27
O=C(c1cc2n(n1)C(C(F)(F)F)CC(c1ccc(Br)cc1)N2)N1CCCC1 (centres unmarked) | 5.12
O=S(=O)(c1ccccc1)n1ccc2cccnc21 | -2.8
Oc1ccc(Br)cc1CN1CCc2ccccc2C1 | 1.26
Cc1ccccc1NC(=O)c1ccccc1N(C)S(=O)(=O)c1ccccc1 | -3.09
CCOC(=O)C1=C(CN2CCN(C(=O)c3ccco3)CC2)NC(=O)NC1c1cccs1 (centres unmarked) | -1.78
Nc1nc(NCc2c(F)cccc2Cl)nn1-c1ccccc1 | 3.48
Cc1ccc(C2Nc3ccccc3N=C3CC(c4ccc5c(c4)OCO5)CC(O)=C32)s1 (centres unmarked) | 0.64
CCN(CC)c1ccc(NC(=O)CC(C)C)cc1 | -0.425
c1ccc2c(c1)CCN(Cc1csc3c1CCCC3)C2 | -4.82
COc1cc(C2C(C#N)=C(N)Oc3[nH]nc(C45CC6CC(CC(C6)C4)C5)c32)ccc1O (centres unmarked) | 4.32

SMILES | % Inhibition @ 10 uM [%]
COc1ccc2c(c1C)CCC/C2=N\OC(=O)c1cc(OC)c(OC)c(OC)c1 | 3.16
O=c1cc(CSCc2ccc(Cl)cc2)nc2sc(-c3ccco3)nn12 | -3.95
COCCCNCc1c(C(=O)O)n(Cc2ccc(C)cc2)c2ccccc12 | 1.93
O=C(COc1ccc(Cl)cc1Cl)Nc1c2c(nn1-c1ccc(F)cc1)CSC2 | 2.5
COC(=O)c1c(N)sc2c1CCN(C)C2 | -4.35
Cc1cccc(C(=O)Nc2ccc(S(=O)(=O)N3CCOCC3)cc2)c1 | -1.38
CC(C)C(=O)Nc1sc2c(c1C#N)CCC(C(C)(C)C)C2 (centres unmarked) | -3.26
COc1ccc(Cl)cc1NC(=O)CCC1CCCC1 | -3.45
CC(=O)NC1=NN(C(C)=O)C(c2ccccc2)S1 (centres unmarked) | -0.736
CCOc1cccc2cc(-c3cc(=O)oc4cc(OC)ccc34)oc12 | 2.31
Cc1cc(C)c2c(n1)SCC(=O)N2CCCC(=O)NCCc1ccccc1 | -0.637
CCc1nc2cc3sc(CC)nc3cc2s1 | -2.91
COc1ccc(CCNC(=O)Cn2nc(C)c3sc4ccccc4c3c2=O)cc1OC | -3.6
CSc1nc2ccccc2n1Cc1ccccc1F | -3.09
CCOc1ccc(CNCc2cccnc2)cc1 | -5.56
Cc1ccc2c(N)c(C(=O)Nc3ccccc3C(F)(F)F)sc2n1 | 0.755
CCCCN(CC)S(=O)(=O)c1ccc2nc(O)cc(C(=O)NCc3ccc(CC)cc3)c2c1 | 2.05
Cc1ccc(CNC(=O)Cc2coc3c(C)c(C)ccc23)cc1 | 2.62
CCOC(=O)c1cc2n(c1/N=C/N(C)C)-c1ccccc1C2=O | 6.86
CC(=O)Nc1ccc(S(=O)(=O)NCc2ccc(F)cc2)cc1 | 0.214
Cc1ccc(C(C)C)c(OCC(=O)NCCc2nc3ccccc3[nH]2)c1 | -9.6
O=C(NCc1cccs1)c1cc2cccc3c2n1CCS3 | -3.29
NC(=O)CSc1nc2c(oc3ccccc32)c(=O)n1Cc1ccc(F)cc1 | -3.33
